From the supplement of paper PMC12217912
This is one part of the list. Sequences were assembled here from the parent chain. Inactive controls read about 0.05.

B1: TEV protease; numbered along this chain (parent)
chain: MGESLFKGPRDYNPISSSICHLTNESDGHTTSLYGIGFGPFIITNKHLFRRNNGTLVVQSLHGVFKVKDTTTLQQHLVDGRDMIIIRMPKDFPPFPQKLKFREPQREERICLVTTNFQTKSMSSMVSDTSCTFPSGDGIFWKHWIQTKDGQCGSPLVSTRDGFIVGIHSASNFTNTNNYFTSVPKNFMELLTNQEAQQWVSGWRLNADSVLWGGHKVFMVKPEEPFQPVKEATQL

Variants of: B1
Test: raw area under fraction-flipped curve 0-4 h after induction (AUC4h, not background-subtracted), DNA-recorder readout of cleavage of the substrate (dimensionless); higher = more cleavage of the substrate by the protease variant
Details: temperature: 34 °C; time window: 0-4 h after rhamnose induction
Procedure: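 In vivo DNA recorder in E. coli TOP10(DE3) ΔrhaA at 34 °C. Each TEVp single-site mutant (parent TEVp 0) is paired with a single-site variant of the 7-mer TEVs (canonical ENLYFQ|S). The substrate sits between flexible linkers in a Bxb1-sfGFP-TEVs-SsrA fusion, so cleavage stabilises Bxb1 and speeds flipping of a recombination array, read by NGS. The value is the raw area under the fraction-flipped curve over 0-4 h after rhamnose induction (AUC4h), with ≥20 reads per time point. It is not background-subtracted; inactive controls average about 0.047.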
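Note: Bxb1 expression induced with 0.2% (w/v) L-rhamnose at OD600 near 0.5, cultures sampled hourly, flipped fraction per protease–substrate barcode pair counted by paired-end Illumina sequencing.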

Variant | area with substrate ENLYCQS | area with substrate ENLYDQS | area with substrate ENLYEQS | area with substrate ENLYGQS | area with substrate ENLYHQS | area with substrate ENLYIQS | area with substrate ENLYKQS | area with substrate ENLYLQS | area with substrate ENLYMQS | area with substrate ENLYNQS | area with substrate ENLYQQS | area with substrate ENLYRQS | area with substrate ENLYSQS | area with substrate ENLYTQS | area with substrate ENLYAQS | area with substrate ENLYPQS | area with substrate ENLYVQS | area with substrate ENLYWQS | area with substrate ENLYYQS
S17W | 0.0818 | 0.0606 | 0.0868 | 0.0649 | 0.0683 | 0.129 | 0.0371 | 0.0764 | 0.104 | 0.063 | 0.0631 | 0.0605 | 0.0986 | 0.0758 | – | – | – | – | –
T192H | – | 0.0667 | – | 0.0653 | 0.0517 | 0.116 | 0.0497 | – | – | 0.0545 | – | 0.0488 | 0.0682 | 0.0784 | 0.061 | 0.0742 | 0.132 | – | –
T192V | – | – | 0.0809 | 0.0685 | – | 0.118 | 0.0584 | – | 0.0952 | – | – | – | 0.0869 | 0.0955 | 0.0852 | 0.0805 | – | 0.0706 | 0.0664
T192Q | 0.154 | 0.0547 | 0.0615 | 0.0535 | 0.0798 | 0.101 | 0.054 | 0.0888 | 0.0848 | 0.0804 | 0.0592 | 0.0642 | 0.075 | 0.0747 | 0.0904 | 0.0555 | – | 0.0833 | 0.0587
T192I | 0.095 | 0.0548 | 0.0628 | 0.0488 | 0.0754 | 0.124 | 0.0194 | – | 0.0793 | 0.0694 | 0.0618 | 0.0626 | 0.0833 | 0.074 | 0.055 | 0.0666 | 0.106 | 0.09 | 0.0789
P40L | 0.079 | 0.0647 | 0.0644 | – | 0.0607 | 0.117 | 0.073 | – | 0.0652 | 0.0509 | 0.0563 | – | 0.0644 | – | – | 0.0728 | – | – | 0.015
P40R | 0.0865 | 0.0457 | 0.0734 | 0.0654 | 0.0775 | 0.0968 | – | – | 0.0745 | 0.0737 | – | 0.0382 | – | 0.0676 | – | 0.059 | 0.114 | 0.0948 | 0.0689
P40I | 0.0855 | 0.06 | 0.097 | 0.0722 | 0.0643 | 0.0967 | – | – | 0.0769 | 0.0545 | 0.0615 | 0.0438 | – | – | – | – | 0.102 | 0.0751 | 0.0637
P40H | 0.0908 | 0.0868 | 0.0659 | 0.0632 | 0.068 | – | 0.0607 | – | 0.077 | 0.0779 | 0.0666 | 0.0546 | 0.0786 | – | – | 0.0796 | 0.115 | 0.0778 | –
P40T | 0.117 | – | 0.0631 | 0.059 | 0.0741 | 0.164 | 0.058 | – | – | 0.0694 | 0.0501 | 0.0648 | 0.0735 | 0.0814 | – | 0.0626 | 0.142 | 0.0852 | 0.0674
P14I | 0.0725 | 0.0612 | 0.0638 | 0.0574 | 0.0651 | 0.114 | 0.0682 | – | 0.0731 | 0.0663 | 0.0461 | 0.0613 | 0.0687 | 0.0417 | – | 0.0673 | 0.101 | 0.0587 | –
V220R | – | 0.0608 | 0.0723 | 0.069 | 0.0677 | 0.109 | 0.0269 | – | 0.077 | 0.0708 | 0.0682 | 0.0603 | 0.0722 | – | 0.0735 | 0.0752 | – | 0.0974 | 0.0718
unchanged | 0.087 | 0.0624 | 0.0687 | 0.0644 | 0.0692 | 0.123 | 0.0605 | 0.0871 | 0.085 | 0.0681 | 0.064 | 0.0626 | 0.075 | 0.0793 | 0.0739 | 0.0725 | 0.116 | 0.0806 | 0.0648
E224K | 0.0873 | – | 0.084 | 0.0704 | 0.0667 | 0.0997 | 0.058 | – | 0.0907 | 0.0685 | – | 0.0545 | 0.0742 | – | 0.0773 | 0.0729 | 0.0978 | 0.0657 | 0.0543
E224W | – | 0.0267 | 0.0613 | 0.0628 | 0.0671 | 0.113 | 0.0588 | 0.0748 | 0.0836 | 0.0689 | 0.0638 | 0.0634 | 0.0672 | 0.0793 | 0.0768 | 0.0753 | – | 0.0376 | 0.0633
E224C | – | – | 0.0666 | 0.0625 | 0.0593 | 0.104 | 0.0688 | 0.078 | 0.0909 | 0.0648 | 0.0231 | 0.069 | 0.0774 | 0.0263 | 0.0797 | 0.0588 | 0.0956 | 0.082 | 0.0537
E224N | 0.092 | – | 0.0638 | 0.0722 | 0.0707 | 0.071 | 0.0632 | – | 0.0918 | 0.06 | 0.0652 | 0.0583 | 0.06 | 0.0712 | 0.0777 | – | – | 0.062 | 0.0756
E224V | 0.0831 | 0.0744 | 0.0881 | 0.0545 | 0.068 | 0.092 | 0.061 | 0.0953 | 0.0989 | 0.0752 | 0.0591 | 0.067 | 0.0894 | 0.0597 | 0.0843 | 0.0611 | 0.0886 | 0.0917 | 0.101
E224H | 0.0884 | 0.0593 | – | 0.0521 | – | – | 0.026 | – | – | 0.0863 | – | 0.0887 | 0.0809 | 0.072 | 0.0722 | – | – | 0.0786 | 0.0756
E224A | 0.0771 | 0.0524 | 0.0688 | 0.0878 | 0.0666 | 0.122 | 0.076 | – | 0.0791 | 0.061 | 0.0592 | 0.0705 | 0.0703 | – | 0.0714 | 0.0761 | 0.0912 | 0.0725 | 0.0591
Q197W | 0.0791 | 0.0576 | 0.0629 | 0.0727 | 0.0607 | 0.0769 | 0.0096 | – | 0.0725 | 0.0719 | 0.0583 | 0.065 | 0.066 | 0.0705 | 0.0699 | 0.0536 | 0.123 | 0.0657 | 0.0515
A232W | – | – | 0.0803 | 0.066 | 0.0563 | 0.136 | 0.0741 | – | 0.0566 | 0.0526 | – | 0.0496 | 0.064 | 0.095 | 0.0582 | 0.059 | 0.101 | 0.0751 | –
A232H | – | 0.0596 | 0.0732 | 0.043 | 0.0941 | 0.133 | 0.0613 | – | – | 0.0733 | – | 0.0618 | – | – | 0.0635 | – | – | 0.0776 | –
A232C | 0.0765 | – | – | 0.0441 | 0.0425 | 0.103 | 0.0633 | – | – | – | – | 0.0555 | 0.0643 | – | 0.0663 | 0.0832 | 0.115 | – | 0.0587
